Test results from PubChem BioAssay AID493208 (National Center for Advancing Translational Sciences (NCATS), 2011).
Among all 44,000 compounds or so, about 340 (0.77%) were called active. Inconclusive results (about 5%) are left out. The call rests on the fitted dose curve; in most records, active means well fitted inhibition curve with a large enough effect; inconclusive means small, poorly fitted or top-dose-only effect; inactive means flat fitted curve, though single readings scatter. The list shows a part of the results.

assay: Acumen qHTS Assay for Inhibitors of the mTORC1 Signaling Pathway in MEF (Tsc2-/-, p53-/-) Cells: Sytravon; conditions: phospho-rpS6 immunofluorescence/PI, 24 h; series mostly up to 38.3 µM; activity change, negative = inhibition: at the top concentration;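 further: plate controls were DMSO for no effect and rapamycin for full effect; nearly all actives have a fitted effect of over 50% in size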
Outline: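 Immunofluorescence of rpS6 phosphorylation in Tsc2-/-, p53-/- MEFs after 24 h compound exposure, normalized to propidium iodide signal. Activity is expressed as % positive cells, thresholded with 7.5 nM rapamycin.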

Activity change, negative = inhibition, inactive:
CCCOc1cccc(C(=O)N(Cc2cc(OC)c(OC)c(OC)c2)C2CCS(=O)(=O)C2)c1 (stereo not given) -13.2%
Cc1ccc(OCCn2nnc3sc4c(c3c2=O)CCC(C(C)(C)C)C4)cc1 (stereo not given) -0.83%
CCn1c(CN2CCC(C)CC2)nc2cc(NC(=O)COc3ccc([N+](=O)[O-])cc3)ccc21 -1.04%
CC(C)c1ccc(NC(=O)c2cccn2-c2nnc(N3CCCCC3)s2)cc1 -10.6%
CCOC(=O)c1cccc(NC(=O)CCCn2c(C)c3cnn(-c4ccccc4)c(=O)c3c2C)c1 -1.28%
COc1cc(C2CC(=O)Nc3c2c(=O)n(C)c(=O)n3C)cc(OC)c1OC (stereo not given) 0.735%
Cc1cccc(-n2ncc(C(=O)N3CCC(C)CC3)c2C2CCN(C(=O)OC(C)(C)C)CC2)c1 -0.0544%
Cc1ccc(CNC(=O)CCC(=O)N2CC(C)Sc3ccccc32)cc1 (stereo not given) -12.4%
CCCCn1c(CNC(=O)c2ccc(OC)cc2)nnc1SCC(=O)Nc1ccccc1 -14.8%
COc1ccc(-c2cc(C(C)=O)c(C)n2CCC(=O)NCc2ccc(F)cc2)cc1 -0.575%
Cc1ccc(NC(=O)c2cc3c(=O)[nH]c4ccccc4c3n2C)cc1F -0.462%
CCN(CC)c1cc2c(cc1F)c(=O)c(S(=O)(=O)c1ccccc1)cn2Cc1ccccc1 -9.89%
COc1ccc(CCNC(=O)NCc2noc3ccc(C)cc23)c(OC)c1 3.94%
CCOC(=O)c1c(S(=O)(=O)NCC(=O)N2CCN(c3ccccc3OC)CC2)c(C)n(C)c1C -2.6%
CC(=O)c1cccc(NS(=O)(=O)c2c(C)nc3sc(C)cn3c2=O)c1 -16.1%
CCOC(=O)c1sc2ncn(CC(=O)Nc3ccc(C)cc3C)c(=O)c2c1C 1.01%
Cc1cc(C)c(/C=C/c2onc(C)c2S(=O)(=O)N2CCC(C(=O)N3CCN(c4ccccc4)CC3)CC2)c(C)c1 -0.262%
COC(=O)c1ccc(Cn2c(SCc3cccc(C)c3)nc3ccncc32)cc1 -5.9%
Cc1ccc(-c2ccc(=O)n(C(C)C(=O)Nc3ccccc3Cl)n2)cc1C (stereo not given) 0.928%
COc1cccc(NC(=O)c2cn(C3CCCCC3)c(=O)c3c2c2ccccc2n3C)c1 -19.3%
CCCCNC(=O)C(CC)Sc1nnc(-c2ccc(OC)c(OC)c2)c(-c2ccc(OC)c(OC)c2)n1 (stereo not given) -0.324%
COc1ccccc1-c1nn(CCC(=O)Nc2cccc(C(C)=O)c2)c2nc(C)cc(C)c12 -2.19%
COc1ccc(S(=O)(=O)N(CC(=O)N2CCC(C)CC2)c2ccc(C)cc2)cc1 4%
O=S(=O)(Nc1ccc(-c2ccc(N3CCCC3)nn2)cc1)c1ccc(Br)cc1 -1.83%
COc1ccc(C(=O)NCC(c2cccs2)S(=O)(=O)c2ccc(C)cc2)cc1 (stereo not given) 0.588%
